Measurements published in patent US10493061B2, “Compositions and methods comprising 2-(acylamino)imidazoles” (priority 2014, dated 2019).

Experiments:
[1] = system: MCF-7, T47D, and MDA-MB-231 cells; experiment: Cell death by propidium iodide staining and flow cytometry; type: cell-based, human; conditions: for cell death (propidium iodide): MCF-7 cells; for ZNA-induced cell death (propidium iodide): ZNA with chloroquine, 72 hours
Method: Measurement of cell death by propidium iodide staining: Cells were cultured to 80% confluence in 6-well plates and the growth media was then replaced with low serum (2% FBS) drug-containing media. Each condition was assessed in triplicate. Following the completion of treatment, the media and floating cells were collected and combined with the trypsinized adherent cells. The cells were washed with 2% FBS/HBSS, and resuspended in a propidium iodide solution (Cell Signaling) for analysis by flow cytometry. The percentage of propidium iodide positive cells for each treatment condition were averaged and normalized to the vehicle-treated control. The normalized data were plotted as the average±standard error of three replicates.
In order to validate the transition metal screen with a second cell viability assay, propidium iodide uptake was measured in four cell lines by flow cytometry following a 24-hour treatment with either 30 μM ZNA alone or in combination with 30 µM CuSO4 or 30 μM ZnSO4 (FIG. 2B).
As such, MCF-7 cells were treated with 30 μM ZNA alone or in combination with ZnSO4 and/or the RIP1 inhibitor Necrostatin-1 for 24 hours; a positive control, the small molecule shikonin, was also included in the assay. Han W et al. Shikonin circumvents cancer drug resistance by induction of a necroptotic death. Mol Cancer Ther 2007; 6(5):1641-49. Cells were subsequently stained with propidium iodide and fluorescence was measured by flow cytometry to quantify cell death (FIG. 5A).
Since autophagy can stimulate both pro-death and pro-survival pathways, experiments were next conducted to assess how autophagic inhibitors impacted ZNA's cell death profile. If autophagy contributes to ZNA-induced cell death, then an inhibitor of autophagic processes would be expected to reduce ZNA-promoted cell death. See Dalby et al., Autophagy 2010; 6(3):322-29. As such, cells were treated with ZNA in combination with chloroquine, an inhibitor of autophagosome function, and cell death was assessed by propidium iodide stain following 72 hours of treatment. Kimura et al. Cancer Res 2013; 73(1):3-7.

[2] = system: MCF-7, T47D, and MDA-MB-231 breast cancer cell lines; experiment: Dose response, luciferase-based ATP (ATPlite) viability assay; type: cell-based, human; conditions: five days of treatment
[3] = system: MCF-10A, MCF-7, T47D, and MDA-MB-231 cells; experiment: Oxidative stress, H2DCFDA (DCF) oxidation by flow cytometry; type: cell-based, human
Method: Measurement of oxidative stress: Oxidative stress induced by drug treatment was assessed by measuring the oxidation of 2′,7′-dichlorodihydrofluorescein diacetate (H2DCFDA). Briefly, cells were seeded in 6-well plates and treated with drug diluted in low serum (2% FBS) media for the appropriate length of time. The media was then replaced with HBSS containing 30 μM H2DCFDA and the plates incubated at room temperature for 30 minutes. Cells were then trypsinized, washed with 2% FBS/HBSS, and resuspended in 2% FBS/HBSS for analysis by flow cytometry. The relative mean fluorescence for each condition was normalized to the corresponding vehicle-treated control and the values were then plotted as an average±standard error.
Further probing the caspase independent cell death induced by ZNA, experiments were next conducted to characterize the extent of oxidative stress during the cell death process. […] The decreased levels of H2DCFDA oxidation observed with ZNA and ZnSO4 combinatorial treatment are consistent with literature reports detailing a connection between increased intracellular Zn^2+ and decreased oxidative stress. E.g., Ho E, Ames B N, Proc Natl Acad Sci USA 2002; 99(26): 16770-75. Attempts to inhibit this increase with the antioxidant N-acetylcysteine (NAC) were successful only with T47D cells; however, a concomitant decrease in cell death was not observed (FIG. 9). […]

[4] = system: caspase 3/7, 8 and 9 activities in MCF-10A, T47D, and MDA-MB-231 cells; experiment: Caspase-Glo assay; type: cell-based, human
Method: Measurement of caspase activity: Caspase 3/7, 8, and 9 activities were measured using Promega (Madison, Wis., USA) Caspase-Glo assays. Briefly, cells were seeded in 96-well white-bottom, white-wall plates at a density such that at the time of analysis wells would be 80% confluent.
In order to establish whether ZNA-treated cells undergo apoptosis, caspase 3/7, 8 and 9 activities were measured using a luciferase-based Caspase-Glo assay. […] Jänicke R U, Sprengart M L, Wati M R, Porter A G. Caspase-3 Is Required for DNA Fragmentation and Morphological Changes Associated with Apoptosis. J Biol Chem 1998; 273(16):9357-60. Caspase activity was then measured for each condition and normalized to the vehicle-treated control (FIG. 4B).

[5] = system: MCF-7, T47D, and MDA-MB-231 breast cancer cell lines; experiment: Cell viability (ATP quantification) with exogenously added transition metals; type: cell-based, human
[6] = system: MCF-7, T47D, and MDA-MB-231 cells; experiment: Intracellular Zn^2+ by FluoZin-3 staining and flow cytometry; type: cell-based
Method: Measurement of intracellular Zn^2+ by FluoZin-3 staining: Cells were seeded in 6-well plates at a density such that at the time of analysis, wells would be 70-80% confluent. Following the completion of treatment, the drug-containing media was removed and replaced with Hank's Balanced Salt Solution (HBSS, Life Technologies) containing 2.5 μM FluoZin-3. The cells were incubated with the indicator for 30 minutes at room temperature in the dark. After staining, the cells were trypsinized, resuspended in HBSS containing 2% FBS, and relative mean fluorescence was measured by flow cytometry (FACscan, BD Biosciences, San Jose, Calif., USA).
In order to determine whether the transcriptional changes in metal trafficking genes were functionally relevant to ZNA's mechanism of action, intracellular Zn^2+ was quantified using the fluorescent indicator FluoZin-3 followed by flow cytometry analysis (FIG. 1G).
To better understand the cancer-selective synergism observed between ZNA and Zn^2+, an experiment was conducted to measure intracellular Zn^2+ using the fluorescent Zn^2+ indicator FluoZin-3.

[7] = system: LC3 in MCF-7, T47D, and MDA-MB-231 cells; experiment: Western blot of autophagosome-associated protein LC3A/B; type: cell-based, human; conditions: for LC3 protein: 30 μM ZNA with 30 μM ZnSO4, 6 hours
Method: Western blot analysis: For analysis of protein expression by Western blot analysis, the procedure set forth in Gligorich et al. was used. Gligorich K, Vaden R, Shelton D, Wang G, Matsen C, Looper R, et al. Development of a screen to identify selective small molecules active against patient-derived metastatic and chemoresistant breast cancer cells. Breast Cancer Res 2013; 15(4):R58. The cells were cultured and treated in 10-cm plates. Cells were harvested in cold radioimmunoprecipitation assay (RIPA) buffer (50 mM Tris-HCl, 150 mM NaCl, 0.1% sodium dodecyl sulfate (SDS), 0.5% sodium deoxycholate, and 1% Triton X-100) supplemented with protease and phosphatase inhibitors (Sigma). Protein concentration was measured using a BCA assay (Thermo Scientific) and […] of protein was resolved by gel electrophoresis using an SDS polyacrylamide gel. Protein was transferred to an Immobilon-FL PVDF membrane (Millipore, Billerica, Mass., USA) and the membrane was blocked for 1 hour at room temperature with Odyssey blocking buffer (Li—COR). The membrane was incubated with primary antibody diluted in Odyssey blocking buffer overnight at 4° C. then washed with tris-buffered saline. After incubation for 1 hour at room temperature with secondary antibodies diluted in Odyssey blocking buffer, the blot was imaged with the Odyssey Infrared Imaging System (LI-COR).
Further cell death characterization studies were also conducted to establish the role of autophagy in ZNA-mediated cell death. To assess the level of autophagic induction following treatment with ZNA, levels of the autophagosome-associated protein LC3A/B were measured by western blot analysis. […] Kabeya et al. EMBO J 2000; 19(21):5720-28. […] Taking into consideration the rapid cell death induced by the combination of ZNA and ZnSO4, an earlier time point (6 hours) was chosen to assess LC3 levels for the combination treatment condition.

[8] = system: MCF-7, T47D, and MDA-MB-231 cells; experiment: Cellular proliferation, EdU incorporation assay
Method: Measurement of cellular proliferation: Cells were seeded in six-well plates at densities such that wells would be approximately 80% confluent at the end of treatment. Cells were treated with drug diluted in low serum (2% FBS) media for the appropriate length of time then 5-ethynyl-2′-deoxyuridine (EdU, Life Technologies) was added directly to the media to achieve a final concentration of 10 M EdU; the cells were then incubated at 37° C. for 30 minutes. EdU incorporation and propidium iodide staining were assessed by flow cytometry following the manufacturer's protocol (Life Technologies) and analyzed as described in Gligorich et al.
Upon finding that ZNA synergized strongly with exogenously added Zn^2+ to promote rapid and cancer-specific cell death, experiments were conducted to determine the effect of treatment on cellular proliferation and to characterize the cell death induced by the combinatorial treatment. First, a 5-ethynyl-2′-deoxyuridine (EdU) incorporation assay was utilized to assess the effects of ZNA and ZNA/ZnSO4 treatment on cellular proliferation. […]

[9] = system: MCF-10A normal mammary epithelial cell line; experiment: Cell viability (ATP quantification) with exogenously added transition metals; conditions: 30 μM ZNA with Fe(III)Cl3, Fe(II)SO4, NiSO4, MnCl2 or CoCl2, 48 hours, compared to ZNA alone
Method: Considering ZNA's ability to stimulate an increase in intracellular zinc and its effect on the transcription of metal trafficking genes, a study was next initiated to determine the effect of ZNA on cells treated in combination with exogenously added transition metals. Three breast cancer cell lines (MCF-7, T47D, and MDA-MB-231) and a normal mammary epithelial cell line (MCF-10A) were treated with 30 μM ZNA in conjunction with 30 M CuSO4, ZnSO4, Fe(III)Cl3, Fe(II)SO4, NiSO4, MnCl2, or CoCl2 for 48 hours; following the completion of treatment, cell viability was measured using an ATP quantification assay (FIG. 2A).

## COc1ccc(-c2c(Cc3ccccc3)[nH]/c(=N\C(=O)c3ccccc3F)n2C)cc1 [ZNA, (E)-N-(4-benzyl-5-(4-methoxyphenyl)-1-methyl-1H-imidazol-2(3H)-ylidene)-2-fluorobenzamide]
[1]; 30 μM ZNA with CuSO4 or 30 μM ZnSO4, 24 hours
  cell death (propidium iodide uptake): induced cell death in cancer cells more rapidly than with ZNA alone
[1]; 30 μM ZNA with ZnSO4, 24 hours
  cell death (propidium iodide): significantly higher levels of cell death than with ZNA alone
[1]; ZNA and ZnSO4 with RIP1 inhibitor necrostatin-1, 24 hours
  cell death (propidium iodide): no rescue in cell death
[1]; MCF-7 and MDA-MB-231 cells
  ZNA-induced cell death (propidium iodide): did not significantly affect cell death
[1]; T47D cells
  ZNA-induced cell death (propidium iodide): decreased ZNA-induced cell death
[2]
  cell viability: decreased cell viability
[3]; 30 μM ZNA alone, up to 48 hours
  DCF fluorescence: slight increase in DCF fluorescence
[3]; 30 μM ZNA with 30 μM ZnSO4, three cancer cell lines, compared to controls
  H2DCFDA oxidation: statistically significant decrease in H2DCFDA oxidation
[4]; 30 μM ZNA alone or with 30 μM ZnSO4, 6 hours
  caspase 3/7, 8, or 9 activity: no caspase 3/7, 8, or 9 activity was observed
[4]; 30 μM ZNA, 72 hours
  caspase 3/7, 8 or 9 activation: did not activate caspases 3/7, 8 or 9
[5]; 30 μM ZNA with CuSO4, 48 hours
  cell viability: significant reduction in cell viability
[5]; 30 μM ZNA with Fe(III)Cl3, Fe(II)SO4, NiSO4, MnCl2 or CoCl2, 48 hours, compared to ZNA alone
  cell viability: no significant change in cell viability
[5]; 30 μM ZNA with ZnSO4, 48 hours
  cell viability: decrease in cell viability
[6]; 30 μM ZNA alone, up to 48 hours, T47D and MDA-MB-231
  intracellular zinc (FluoZin-3): only modest increases in intracellular zinc
[6]; 30 μM ZNA with 30 μM ZnSO4, three hours
  increase in FluoZin-3 fluorescence: ≥ 34 fold
[6]; ZNA with Actinomycin D (ACTD), 24 hours, compared to ZNA alone
  intracellular Zn^2+ (FluoZin-3): statistically significant increases in intracellular Zn^2+
[7]; MCF-7 and MDA-MB-231 cells
  LC3 protein: significant increases were not observed
[7]; T47D cells
  LC3 protein: apparent increase in LC3 protein
[7]; ZNA alone, 48 and 72 hours
  LC3 level: increase in LC3
[8]; ZNA alone, MCF-7 and T47D cells
  EdU incorporation: statistically significant decrease in EdU incorporation
[8]; ZNA/ZnSO4, 6 hours
  proliferation (EdU): complete block in proliferation
[9]
  cell viability: no significant change in cell viability
